# Patent US20060159695A1
# Biological target: RSV F protein on human RSV virus (Long strain) (human RSV, Long strain)
# Experiment: cell-based or functional assay
binder,measurement,value
"Fab 020 (Fab, V domains shown) VH: [… about 120 residues …] VL: DIVMTQSPDSLAVSLGERATINCRASDSVDLFGQSYMHWYQQKPGQPPKLLIYAASNPESGVPDRFSGSGSGTDFTLTISSLQAEDVAVYYCQQIIADPWTFGQGTKVEIK",Viral Neut (fold increase over wild-type B23 Fab),8 fold
